# Source: article PMC6212790
# The list shows a part of the results. At the low end of the ranking the order means little.
# Target: T1, GST-Rok-C97-191 (UniProt O34857)
# T1 sequence: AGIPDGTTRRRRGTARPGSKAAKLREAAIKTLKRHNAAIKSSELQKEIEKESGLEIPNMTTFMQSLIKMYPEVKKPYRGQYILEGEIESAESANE
# Assay: protein binding microarray;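 further: rank score from −0.5 (least bound) to 0.5 (best bound)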
# Details: Rok is a gene silencer of Bacillus subtilis; high values mean tight binding; most listed sequences are background and not binding sites; double strand, one strand shown
row,Sequence,binding signal
1,CCAAAAAA,0.138 E-score
2,TGGAAACA,-0.137 E-score
3,ATTTAGTA,0.4 E-score
4,ACCTCGGC,-0.211 E-score
5,ACCTCGGG,-0.00108 E-score
6,CAGTTCAA,0.00966 E-score
7,CCTTAATA,0.000696 E-score
8,AGGGTGTC,0.0517 E-score
9,ACTTACAA,0.215 E-score
10,AGGCAGGG,-0.256 E-score
11,AATTAGAA,0.202 E-score
12,AACGACTT,0.0476 E-score
13,ACTGATCC,-0.0642 E-score
14,CATACATA,0.234 E-score
15,ATGATGCA,-0.0342 E-score
16,ACCGTGAC,-0.111 E-score
17,AACCTACG,0.0917 E-score
18,GTTAAGCA,-0.00396 E-score
19,AATGCGAC,0.0487 E-score
20,TCAAGTCA,-0.148 E-score
21,ATACTTAC,0.169 E-score
22,CGTAGTGA,0.168 E-score
23,CTCGGACA,-0.0866 E-score
24,AACGGCCA,-0.2 E-score
25,AGAGAATC,-0.0622 E-score

row,Sequence,binding signal
1,TAGAGGGA,-0.0716 E-score
2,ACATGAAC,0.084 E-score
3,TTGATAAA,0.0291 E-score
4,GAGTTGTA,0.267 E-score
5,GATACCAC,0.054 E-score
6,GCCATAGC,-0.0185 E-score
7,CTTGTGTA,0.0242 E-score
8,ACTCGAAG,-0.11 E-score
9,AGTATTGA,0.217 E-score
10,AAACAGTA,0.093 E-score
11,AGCCCAAG,-0.124 E-score
12,GAAAGGGC,-0.215 E-score
13,ATACCTCC,0.0179 E-score
14,ACATGATC,0.13 E-score
15,TGGCCTAA,-0.0801 E-score
16,GGCGGCGA,-0.142 E-score
17,AAGATCAA,0.021 E-score
18,CTCAAAAG,-0.223 E-score
19,GACGCTGA,-0.195 E-score
20,CGCGACTA,0.12 E-score
21,AATCGCGT,-0.121 E-score
22,CTCGCGGC,-0.252 E-score
23,ATCTGCAT,0.0255 E-score
24,AGGATGCC,-0.0436 E-score
25,ATCCTCAA,0.0905 E-score

row,Sequence,binding signal
1,TAAGGTCA,-0.0185 E-score
2,AGTTGCTG,0.147 E-score
3,ACGGCTTG,-0.0924 E-score
4,CTGCGATA,0.16 E-score
5,AATCTGGT,0.0864 E-score
6,GCTCGGTA,0.0228 E-score
7,CGTCTGAA,-0.0845 E-score
8,AAGTGCTC,-0.0534 E-score
9,GCTTGGAA,-0.196 E-score
10,GGACGCAA,0.0622 E-score
11,CTTGGTGA,-0.19 E-score
12,ATTGTCAC,0.138 E-score
13,AAATTCAG,0.131 E-score
14,GCTACCGA,0.0641 E-score
15,CAATCGCC,-0.327 E-score
16,AATTGGAA,-0.0206 E-score
17,GTCATTGA,0.014 E-score
18,CTTGTCGC,-0.267 E-score
19,GCTTACTA,0.0198 E-score
20,CGAATTAC,0.255 E-score
21,ACCAAAGA,0.0254 E-score
22,AAAGACAG,-0.157 E-score
23,ATCCTAAG,-0.0566 E-score
24,AAATGGAG,-0.137 E-score
25,CCCATCCA,-0.233 E-score

row,Sequence,binding signal
1,GGCCATGA,-0.246 E-score
2,AGACGTTC,-0.172 E-score
3,ATGGTCGA,-0.18 E-score
4,CACTTATG,0.0791 E-score
5,CAGGATCG,-0.0098 E-score
6,ACCTATAA,0.26 E-score
7,CTGGAAAC,-0.0874 E-score
8,CATTGCAA,0.016 E-score
9,CAGCCTAG,-0.19 E-score
10,ATGGTATA,0.353 E-score
11,CCTGGGGA,-0.253 E-score
12,CATGGCCA,-0.0818 E-score
13,ACGCCTAG,-0.0162 E-score
14,CCCTTCGA,-0.279 E-score
15,CTTGAGTC,0.0132 E-score
16,CACAAGGC,-0.275 E-score
17,GTTCCTCA,-0.174 E-score
18,AAAATATA,0.399 E-score
19,CGGTTACC,-0.125 E-score
20,CAGATTAG,0.0604 E-score
21,CGGACCTC,-0.297 E-score
22,CCACGCCC,-0.335 E-score
23,AAGTCTAA,-0.0843 E-score
24,CCCCTTTA,-0.193 E-score
25,CACGCGTC,-0.186 E-score

row,Sequence,binding signal
1,CCTGATAA,0.0642 E-score
2,CAGATCAC,0.0173 E-score
3,CCTATTCC,-0.0529 E-score
4,ACAAAGCA,0.0742 E-score
5,GGCCCCAC,-0.277 E-score
6,GATCATCC,-0.161 E-score
7,AGAGTCCT,-0.257 E-score
8,GCTAGTAC,0.184 E-score
9,TATGGTCA,0.00657 E-score
10,TAGTGTAA,0.251 E-score
11,AGGAAACT,0.0863 E-score
12,ATGGATGC,-0.0808 E-score
13,ATCTGGAA,0.00973 E-score
14,AAGTGGGT,0.213 E-score
15,CTCTAGAC,-0.0555 E-score
16,GGCAGCCC,-0.201 E-score
17,AAATCACC,0.0056 E-score
18,CCGATACG,-0.0622 E-score
19,CCGAATTC,-0.13 E-score
20,AGAAAGTC,0.196 E-score
21,CTTCCCGA,-0.113 E-score
22,GTTCTGCA,-0.0502 E-score
23,AAGTCTAG,0.0844 E-score
24,CCTTCTTC,-0.263 E-score
25,AGCTCCTC,0.0487 E-score

row,Sequence,binding signal
1,AAGTAGTC,0.226 E-score
2,ATCGGAAG,-0.0836 E-score
3,CACCGAGG,-0.269 E-score
4,TATGATGA,0.276 E-score
5,CTTCTTCC,-0.323 E-score
6,GTTTTAGA,0.0136 E-score
7,CCGTGCAG,-0.0172 E-score
8,ACGGTAAG,-0.109 E-score
9,TCCGAAAA,0.0191 E-score
10,ATAGTGGA,0.1 E-score
11,ACAAACGG,-0.0698 E-score
12,CTGTGTGA,0.0703 E-score
13,ATCATACA,0.161 E-score
14,AGCTTAAC,-0.0342 E-score
15,ACGCGACG,-0.0738 E-score
16,ATGTCATC,-0.181 E-score
17,CACTCCTC,-0.242 E-score
18,GTCCATCA,-0.265 E-score
19,ACCGGGGG,-0.0644 E-score
20,AGGATAGA,0.0305 E-score
21,ATCTAAAC,0.0603 E-score
22,CGAGCATC,-0.0706 E-score
23,AGGTCTCG,-0.345 E-score
24,ATGCATAG,0.0578 E-score
25,ATACCTAC,0.333 E-score

row,Sequence,binding signal
1,CTCTTTCC,-0.0674 E-score
2,CTGCAGCC,-0.271 E-score
3,CCTCTTTA,-0.057 E-score
4,GAGTTCAC,0.0331 E-score
5,CAAACTGC,-0.12 E-score
6,GATAATAC,0.21 E-score
7,GCGTCCCC,-0.279 E-score
8,AGAGATGC,0.0333 E-score
9,CCGCTGTC,-0.299 E-score
10,TGGTTCAA,-0.0707 E-score
11,GATACACC,0.0831 E-score
12,GCAAGAAA,0.0878 E-score
13,CCTGGCAC,-0.187 E-score
14,ACTGTTGG,0.0362 E-score
15,CTATTCGA,0.195 E-score
16,GAGTGGGC,-0.154 E-score
17,GCGCGCCA,-0.271 E-score
18,ATAATGGC,0.135 E-score
19,CGCGGGAG,-0.107 E-score
20,CCGCCGAC,-0.185 E-score
21,GGGATGAA,0.238 E-score
22,ACAACCCC,-0.207 E-score
